The list shows a part of the results.
These compounds were tested on T1, C. trachomatis L2/434/Bu expressing GFP (CTL2-GFP). Conditions: total inclusion area; 28.5 h, 10 µM; inhibitor.
T1 construct: L2/434/Bu GFP intracellular growth in HeLa cells
Parameters: species or system HeLa; C. trachomatis total inclusion area by high-content imaging, normalised to DMSO
How it was run: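 Following bulk GFP and resorufin fluorescence reads, infected cells were fixed, Hoechst-stained and imaged on a high-content platform. Inclusion total area and number per well served as growth proxies; nuclei counts indicated host viability. MICs were derived as for the fluorescence assay.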

Going from `O=C(O)c1ccc(S(=O)(=O)c2ccc(C(=O)O)c(C(=O)O)c2)cc1C(=O)O` [CBK022872] to `Cc1ccc(C(=O)O)c(NC(=O)c2ccccc2F)c1` [CBK126744], the “% of control remaining” value falls from 84.7164 to 70.999.

Going from `Nc1cc(-c2ccccc2)nn1-c1ccc(C(=O)O)cc1` [CBK286565] to `O=C(/C=C(\c1ccccc1)n1cncn1)c1ccc(Cl)cc1` [CBK262089], the “% of control remaining” value rises from 88.073 to 104.732.

Compared with `O=C(COc1ccc(S(=O)(=O)N2CCOCC2)cc1)NCc1ccco1` [CBK268377], `CC(=O)Nc1ccc(S(=O)(=O)N2CCCC(CO)C2)cc1` (stereo not shown) [CBK262108] is higher in “% of control remaining” value: 83.8941 for the first, 92.8084 for the second.

Compared with `COCCNC(=O)c1cc(-c2cccc(C(=O)N(C)C)c2)cnc1N1CCOCC1` [CBK076464], `COc1ccccc1C(=O)NCCNC(=O)c1ccccn1` [CBK269174] is lower in “% of control remaining” value: 108.786 for the first, 94.4036 for the second.

Compared with `CC(=O)Nc1cccc(Oc2nccnc2-c2ccc(F)cc2)c1` [CBK106900], `Oc1ccc(Nc2cc(-c3ccc(Cl)cc3)ncn2)cc1` [CBK090751] is higher in “% of control remaining” value: 4.465 for the first, 112.219 for the second.

Compared with `CCC(=O)N1CCCC1c1nc(C)c2c(n1)N(CCc1ccccc1OC)CCC2` (stereo not shown) [CBK286246], `COc1ccccc1Cn1ncc2c1CCCC2NC(=O)C1CCC1` (stereo not shown) [CBK282895] is lower in “% of control remaining” value: 107.79 for the first, 81.2981 for the second.

Going from `O=C1CCC(=O)N1CCOc1nccnc1OC1CCN(CCc2ccccn2)CC1` [CBK084360] to `c1ccc(CCNc2nccnc2-c2ccoc2)nc1` [CBK036790], the “% of control remaining” value rises from 93.5231 to 124.045.

First: CS(=O)(=O)Nc1cc2ccccc2c(-c2cccnc2)n1 [CBK085747]
Second: O=C(O)c1cccc(NS(=O)(=O)c2cc3ccccc3o2)c1 [CBK200423]
The “% of control remaining” value of the first is higher: 104.158 for the first, 97.1742 for the second.

Going from `CSc1nnc(-c2cccs2)n1C` [CBK067702] to `COc1ccccc1-c1nnc(SC)n1-c1ccc(C)cc1` [CBK076670], the “% of control remaining” value rises from 48.914 to 95.053.

Going from `Cn1nnc2cc(NC(=O)NCc3csc(N4CCOCC4)n3)ccc21` [CBK307492] to `Cn1cc(-c2nc(C(=O)NCc3ccnc(N4CCCC4)c3)cs2)cn1` [CBK305666], the “% of control remaining” value falls from 46.7697 to 19.1954.

Going from `Cn1cc(NC(=O)N2CCCN(Cc3ccccn3)CC2)nn1` [CBK307034] to `COc1ccc(CN2CCCN(C(=O)c3ccnc(Cl)c3)CC2)cc1` [CBK305364], the “% of control remaining” value rises from 85.8745 to 101.462.

First: CC(COC(C)(C)C)Oc1nccnc1OCc1ccc(Cl)c(Cl)c1 (stereo not shown) [CBK161607]
Second: OCCNc1nccnc1Cl [CBK089793]
The “% of control remaining” value of the first is higher: 99.4895 for the first, 25.2945 for the second.

First: Cc1cc(C[C@@H]2COC[C@H]2NCCc2ccccc2)on1 [CBK284882]
Second: Cc1cc(C)nc(NC(=N)NCc2ccccc2)n1 [CBK288157]
The “% of control remaining” value of the first is higher: 99.9679 for the first, 70.8493 for the second.

First: O=C(C1CCCC1)N1CCC(c2nnc3n2CCCCC3)CC1 [CBK284612]
Second: CC1CCCCN1C(=O)Cn1c(C2CCOCC2)cc2cccnc21 (stereo not shown) [CBK284675]
The “% of control remaining” value of the first is higher: 94.6094 for the first, 94.5895 for the second.

Going from `O=C(O)C1(Oc2ccc3ncccc3c2)CCN(CC2CCOC2)CC1` (stereo not shown) [CBK307336] to `CCC(C)NC(=O)Cn1c(C2CCOCC2)cc2cccnc21` (stereo not shown) [CBK285390], the “% of control remaining” value rises from 31.5537 to 97.8235.

Compared with `Cc1cccc(OCC(=O)NC(=S)Nc2ccccc2N2CCCCC2)c1C` [CBK266298], `CCOc1ccccc1NC(=O)Nc1cccc(S(N)(=O)=O)c1` [CBK057282] is higher in “% of control remaining” value: 83.7712 for the first, 98.1861 for the second.

Compared with `Cc1ccc2[nH]c3c(c2c1)CCCC3NCC(O)Cc1ccccc1` (stereo not shown) [CBK263154], `Cc1[nH]c2ccc(CNC(=O)NC3CCCc4cn[nH]c43)cc2c1C` (stereo not shown) [CBK305488] is higher in “% of control remaining” value: 63.8001 for the first, 68.6528 for the second.

Compared with `Cc1ccc2oc(C(=O)Nc3ccc(-n4cnnn4)cc3)c(C)c2c1` [CBK287804], `COc1ccc(Br)cc1S(=O)(=O)Nc1ccsc1C(=O)Nc1ccc(F)cc1` [CBK004593] is lower in “% of control remaining” value: 106.549 for the first, 82.4457 for the second.

Going from `CCOC(=O)CC(=O)CSc1nc(C)cc(-c2cccnc2)c1C#N` [CBK267460] to `COc1ccc(-c2nnc(SCC(=O)NN)n2-c2ccccc2)cc1` [CBK263157], the “% of control remaining” value falls from 110.252 to 110.235.

First: Cc1nccn1-c1ccc(NC(=O)C2CC(=O)N(C3CCCC3)C2)cc1F (stereo not shown) [CBK298286]
Second: O=C(O)CCC(=O)Nc1ccc(NC(=O)C2CCCCC2)c(Cl)c1 [CBK268867]
The “% of control remaining” value of the first is lower: 84.2479 for the first, 123.308 for the second.

Going from `Nc1ccc(-c2cnc(NCc3ccc4c(c3)OCO4)c(C(=O)Nc3ccc4c(c3)OCCO4)c2)cc1` [CBK138480T] to `O=C(NC(NC(=O)c1ccccc1F)c1ccc2c(c1)OCO2)c1ccccc1F` [CBK265742], the “% of control remaining” value rises from 60.9018 to 88.4984.

Compared with `CC(=O)c1cccc(-c2nc(CC3CCN(C)CC3)nn2CCO)c1` [CBK306645], `CN1CCN(c2cc(-c3cccc(CO)c3)nc3ccnn23)CC1` [CBK037099] is higher in “% of control remaining” value: 83.5476 for the first, 118.634 for the second.

Going from `CCSc1nc2ccccc2n1C(=O)c1ccc(S(=O)(=O)N2CCCCCC2)cc1` [CBK265825] to `NC(=O)c1c(NC(=O)c2ccc(S(=O)(=O)N3CCCC3)cc2)sc2c1CCCC2` [CBK262486], the “% of control remaining” value rises from 69.3298 to 92.756.

Going from `Cc1c(C(=O)Nc2cccc(S(=O)(=O)NCc3ccco3)c2)cnn1-c1ccccc1` [CBK297762] to `Cc1ccc(CSCCNS(=O)(=O)c2ccc3ccccc3c2)cc1` [CBK268048], the “% of control remaining” value rises from 91.4606 to 100.464.

Going from `COc1ccc(CCNC(=O)Nc2ccccc2[N+](=O)[O-])cc1` [CBK266497] to `O=C(CSc1ccccn1)Nc1cccc(Cl)c1Cl` [CBK057679], the “% of control remaining” value falls from 119.311 to 75.9679.

First: Nc1nc(NCc2ccccc2)nc(-c2cc(Cl)ccc2O)n1 [CBK074526]
Second: Cc1cc(Oc2ccccc2)nc(NCc2ccccc2)n1 [CBK003557]
The “% of control remaining” value of the first is lower: 69.5297 for the first, 81.1407 for the second.

Going from `Cc1ccc(N2C(=O)CSC2c2ccc(Cl)cc2Cl)cc1` (stereo not shown) [CBK025673] to `COc1ccc(C(=O)N[C@H]2CCN3C(=O)c4ccc(Cl)cc4NC(=O)[C@@H]3C2)cc1` [CBK289564], the “% of control remaining” value rises from 82 to 128.355.

First: CCn1c(=O)n(CC(=O)N(C)C)c2cccnc21 [CBK282299]
Second: CCOC(=O)Cc1ccc(Nc2cc(-c3ccc(N(C)C)cc3)ncn2)cc1 [CBK090712]
The “% of control remaining” value of the first is higher: 97.0274 for the first, 3.714 for the second.

Going from `COc1ccc(C(=O)N2CCC3(CCN(C(=O)c4ccc5[nH]c(=O)[nH]c5c4)C3)C2)cc1OC` (stereo not shown) [CBK131793] to `COc1ccc(-c2cc([C@H]3CN4CC[C@H]3C[C@@H]4CNC(C)=O)n(C)n2)cc1OC` [CBK288757], the “% of control remaining” value rises from 60.221 to 111.155.

Compared with `CCC(C)NC(=O)C1=CCN(S(C)(=O)=O)C1` (stereo not shown) [CBK282861], `Cc1ccc(SC(C)C(=O)NCCCN2CCOCC2)cc1` (stereo not shown) [CBK268624] is higher in “% of control remaining” value: 77.539 for the first, 86.0635 for the second.

Compared with `CCCS(=O)(=O)Nc1nccnc1N1CCN(c2cnccn2)CC1` [CBK048828], `CS(=O)(=O)c1ccc(-c2nccnc2N2CCCCC2CO)cc1` (stereo not shown) [CBK037657] is higher in “% of control remaining” value: 83.2036 for the first, 104.896 for the second.

First: Cc1ccc(C(=O)N2CN(C(=O)CNC3CC3)CC2(C)C)cc1 [CBK089574C]
Second: CN1CCN(C(=O)c2ccc(Cl)cc2)CC1 [CBK126096]
The “% of control remaining” value of the first is lower: 4.374 for the first, 125.159 for the second.

Compared with `CS(=O)(=O)N(CC(=O)O)c1cccc(C(F)(F)F)c1` [CBK286988], `O=C(O)CN1C(=O)[C@@H]2Cc3ccccc3CN2C1=O` [CBK202728] is lower in “% of control remaining” value: 91.8505 for the first, 89.5951 for the second.

Compared with `COc1ccnc(N2CCCN(CC(N)=O)CC2)n1` [CBK083992], `Cn1c(SCC(=O)N2CCN(c3ccccc3)CC2)nc2cc(Cl)ccc21` [CBK298295] is higher in “% of control remaining” value: 65.897 for the first, 111.634 for the second.

Going from `COc1ccc(Br)cc1S(=O)(=O)Nc1c(C(=O)O)sc2ncccc12` [CBK049978] to `CCOc1ccc(CNc2ccc(C3c4ccsc4CCN3C(C)=O)cc2)cc1` (stereo not shown) [CBK286451], the “% of control remaining” value rises from 74.1817 to 85.3342.

First: CC(C)(C)C1=CC2=NC3(CCC3)C3C[C@@](C)(O)[C@@H](O)[C@@H]3N2O1 (stereo partly shown) [CBK303263]
Second: CC1=CC2=NC3(CCC3)[C@@H]3C[C@@H](O)[C@@H](O)[C@@H]3N2O1 [CBK303257]
The “% of control remaining” value of the first is higher: 69.4886 for the first, 49.3897 for the second.

Compared with `CCc1n[nH]c(SCc2ccc(Br)cc2)n1` [CBK265221], `Nc1nc(OCc2cccs2)cnc1-c1ccsc1` [CBK145161] is higher in “% of control remaining” value: 92.8276 for the first, 97.9108 for the second.

Compared with `Cc1cc(C)n(C(C)CC(=O)N2CCN(C)CC2c2ccccc2)n1` (stereo not shown) [CBK282014], `CC(C)(C)OC(=O)N1CCC[C@H]([C@H](O)c2cccs2)C1` [CBK282301] is higher in “% of control remaining” value: 100.382 for the first, 112.025 for the second.

Compared with `COc1ccc2c(c1)cc(C(=O)NCCN1CCCCC1CO)n2C` (stereo not shown) [CBK306621], `Cc1nc(S(=O)(=O)CCn2cccn2)n(C2CCCCC2)c1C` [CBK305217] is lower in “% of control remaining” value: 74.2568 for the first, 72.237 for the second.

Compared with `O=C1CC[C@@H](NCc2ccccc2O)[C@H](c2cc(F)cc(F)c2)N1` [CBK283126], `Cc1nc2nc(N)nn2c(C)c1CCC(=O)NCc1cccc(Cl)c1` [CBK304993] is lower in “% of control remaining” value: 102.272 for the first, 56.084 for the second.

First: CSc1c(C#N)c(-c2cc(C(C)(C)C)on2)nn1C [CBK006360]
Second: Nc1nc2c(nc(Br)n2[C@H]2C[C@@H](O)[C@@H](CO)O2)c(=O)[nH]1 [CBK201333]
The “% of control remaining” value of the first is lower: 103.319 for the first, 125.758 for the second.
